In PMC4081100:
The entries are a selection whose mix differs from that of the whole data set. For some of these results: At the low end of the ranking the order means little. Some of the results follow. For some of these results: Construct or isoform of the protein are uncertain.

What was measured:
Assay in all cases: universal protein binding microarray (PBM)
Settings in all cases: transcription factors of Arabidopsis thaliana; high values mean tight binding; most listed sequences are background and not binding sites; double strand, one strand shown
GST-ANAC092(1-176) = molecular target: T1, GST-ANAC092(1-176) (UniProt Q9FKA0)
T1 sequence: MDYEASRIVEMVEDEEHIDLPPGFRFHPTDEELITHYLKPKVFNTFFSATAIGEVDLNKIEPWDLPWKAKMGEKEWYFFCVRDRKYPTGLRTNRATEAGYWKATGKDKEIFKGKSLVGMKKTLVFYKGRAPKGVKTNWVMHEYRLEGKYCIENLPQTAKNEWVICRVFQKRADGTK

GST-NTL6(1-168) = GST-NTL6(1-168) (UniProt Q9SCK6)
GST-ANAC019 NAC domain = molecular target: T2, GST-ANAC019 NAC domain (UniProt Q9C932)
T2 sequence: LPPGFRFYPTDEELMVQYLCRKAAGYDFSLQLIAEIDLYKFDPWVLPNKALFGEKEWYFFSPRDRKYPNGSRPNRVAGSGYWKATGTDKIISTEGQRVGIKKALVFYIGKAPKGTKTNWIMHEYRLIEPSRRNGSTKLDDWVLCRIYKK

GST-ATAF1 NAC domain = molecular target: T3, GST-ATAF1 NAC domain (UniProt Q39013)
T3 sequence: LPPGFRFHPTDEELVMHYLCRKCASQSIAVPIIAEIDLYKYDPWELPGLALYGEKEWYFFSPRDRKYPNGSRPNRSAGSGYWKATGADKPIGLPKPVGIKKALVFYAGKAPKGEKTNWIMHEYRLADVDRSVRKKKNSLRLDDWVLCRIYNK

[1] = molecular target: T4, GST-ANAC092(1-285) full length (UniProt Q9FKA0)
T4 sequence: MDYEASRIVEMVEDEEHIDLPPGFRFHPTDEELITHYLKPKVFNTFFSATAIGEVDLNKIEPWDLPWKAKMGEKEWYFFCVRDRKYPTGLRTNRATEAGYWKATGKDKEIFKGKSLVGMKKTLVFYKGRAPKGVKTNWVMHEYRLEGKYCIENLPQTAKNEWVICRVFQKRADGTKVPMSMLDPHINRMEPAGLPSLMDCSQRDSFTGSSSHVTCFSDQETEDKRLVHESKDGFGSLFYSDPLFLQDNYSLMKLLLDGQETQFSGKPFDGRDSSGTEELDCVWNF

GST-NAP(1-166) = molecular target: T5, GST-NAP(1-166) (UniProt O49255)
T5 sequence: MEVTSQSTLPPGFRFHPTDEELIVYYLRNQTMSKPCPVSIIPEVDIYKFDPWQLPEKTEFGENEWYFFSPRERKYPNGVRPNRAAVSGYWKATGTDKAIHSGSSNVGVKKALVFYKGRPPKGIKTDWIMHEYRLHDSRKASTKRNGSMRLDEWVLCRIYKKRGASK

GST-NST2(1-184) = molecular target: T6, GST-NST2(1-184) (UniProt Q9M274)
T6 sequence: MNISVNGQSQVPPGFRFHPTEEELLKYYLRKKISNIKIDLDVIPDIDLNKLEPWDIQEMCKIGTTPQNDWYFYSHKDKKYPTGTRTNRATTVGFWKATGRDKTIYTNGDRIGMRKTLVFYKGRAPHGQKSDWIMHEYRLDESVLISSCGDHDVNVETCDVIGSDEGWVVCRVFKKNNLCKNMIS

GST-NTL8 NAC domain = molecular target: T7, GST-NTL8 NAC domain (UniProt Q9XIN7)
T7 sequence: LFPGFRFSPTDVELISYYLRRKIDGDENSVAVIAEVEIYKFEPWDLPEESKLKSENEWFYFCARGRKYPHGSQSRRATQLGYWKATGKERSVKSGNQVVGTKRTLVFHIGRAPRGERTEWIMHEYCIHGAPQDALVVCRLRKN

GST-SND1(1-203) = molecular target: T8, GST-SND1(1-203) (UniProt Q9LPI7)
T8 sequence: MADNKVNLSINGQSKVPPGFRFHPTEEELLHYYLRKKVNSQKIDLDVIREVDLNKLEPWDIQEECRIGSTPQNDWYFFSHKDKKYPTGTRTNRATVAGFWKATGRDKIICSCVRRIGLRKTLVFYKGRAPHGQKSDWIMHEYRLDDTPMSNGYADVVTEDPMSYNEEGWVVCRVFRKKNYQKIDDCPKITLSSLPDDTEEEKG

GST-VND3 NAC domain = molecular target: T9, GST-VND3 NAC domain (UniProt Q9FH59)
T9 sequence: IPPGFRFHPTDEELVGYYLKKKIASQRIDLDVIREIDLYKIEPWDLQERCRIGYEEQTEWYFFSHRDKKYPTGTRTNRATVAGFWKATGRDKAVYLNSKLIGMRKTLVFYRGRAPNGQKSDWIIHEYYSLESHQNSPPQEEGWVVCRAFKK

GST-VND7 NAC domain = molecular target: T10, GST-VND7 NAC domain (UniProt Q9C8W9)
T10 sequence: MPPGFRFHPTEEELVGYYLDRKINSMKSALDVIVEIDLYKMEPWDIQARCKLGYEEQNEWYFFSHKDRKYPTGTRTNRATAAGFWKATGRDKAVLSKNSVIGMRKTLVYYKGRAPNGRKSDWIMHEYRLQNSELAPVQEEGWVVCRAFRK

[2] = molecular target: T11, GST-VOZ2 (Arabidopsis thaliana) (UniProt Q9SLB9)
T11 sequence: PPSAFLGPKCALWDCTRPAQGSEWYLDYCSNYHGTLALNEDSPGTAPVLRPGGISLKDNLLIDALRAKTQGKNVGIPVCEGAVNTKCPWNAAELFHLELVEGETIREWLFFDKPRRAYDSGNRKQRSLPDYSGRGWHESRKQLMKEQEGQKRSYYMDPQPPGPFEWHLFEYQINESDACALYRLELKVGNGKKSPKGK

GST-ANAC055(1-171) = molecular target: T12, GST-ANAC055(1-171) (UniProt Q9LDY8)
T12 sequence: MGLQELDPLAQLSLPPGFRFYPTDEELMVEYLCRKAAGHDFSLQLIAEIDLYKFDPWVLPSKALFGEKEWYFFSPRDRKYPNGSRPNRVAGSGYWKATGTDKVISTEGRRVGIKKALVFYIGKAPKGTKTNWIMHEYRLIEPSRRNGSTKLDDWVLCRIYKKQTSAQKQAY

Sequence	binding signal (GST-ANAC092(1-176)) [E-score]	binding signal (GST-NTL6(1-168)) [E-score]	binding signal (GST-ANAC019 NAC domain) [E-score]	binding signal (GST-ATAF1 NAC domain) [E-score]	binding signal [1] [E-score]	binding signal (GST-NAP(1-166)) [E-score]	binding signal (GST-NST2(1-184)) [E-score]	binding signal (GST-NTL8 NAC domain) [E-score]	binding signal (GST-SND1(1-203)) [E-score]	binding signal (GST-VND3 NAC domain) [E-score]	binding signal (GST-VND7 NAC domain) [E-score]	binding signal [2] [E-score]	binding signal (GST-ANAC055(1-171)) [E-score]
TATGGTCA	-0.189	-0.0519	-0.105	-0.0664	0.0396	0.0222	-0.0876	-0.15	-0.0139	0.0521	-0.146	-0.0673	–
AGTCAATG	-0.0193	-0.0344	-0.114	–	-0.019	-0.1	–	-0.113	-0.0272	-0.00324	-0.0476	0.0261	0.0211
GGTCAAAC	0.0595	-0.0163	0.0385	–	0.0869	-0.125	–	-0.0216	-0.0399	-0.0822	-0.00052	0.00553	-0.00958
GGTCAAGA	0.0459	-0.0123	–	-0.0659	–	0.034	–	-0.0584	0.0253	-0.0172	-0.128	-0.0971	-0.0714
CTGGTCAA	–	-0.0936	-0.0595	-0.0243	-0.101	-0.0439	-0.0641	0.0347	-0.0342	-0.0288	-0.0431	0.0695	-0.0681
TGACTGCA	0.036	0.0778	0.0411	0.0918	-0.00967	0.00894	-0.0202	-0.102	-0.0654	-0.0536	-0.0195	-0.00178	–
ACTGGTCA	–	-0.124	-0.0184	-0.103	-0.0168	-0.0704	-0.11	-0.0498	-0.0103	0.0448	-0.142	-0.105	-0.0803
ACTTGACC	0.0892	0.028	–	0.0108	–	-0.105	0.11	0.0948	0.0398	0.0371	-0.0669	0.0516	0.0306
GCTGACCA	-0.141	-0.225	–	-0.207	-0.129	-0.0578	-0.173	-0.0524	-0.0785	-0.0474	-0.0534	-0.207	-0.158
CAGTCAAG	–	-0.103	-0.00847	-0.0434	–	-0.00449	-0.0465	–	-0.088	-0.142	-0.109	-0.108	-0.0801
GAATTGAC	-0.0196	0.0313	-0.00835	–	–	-0.0676	–	0.051	0.047	0.0444	0.0199	0.0296	0.0993
AATTTGAC	-0.0938	-0.165	-0.0778	0.237	0.045	0.003	0.0346	-0.07	-0.0456	0.0556	-0.0431	0.186	–
GAAGGTCA	-0.0252	–	-0.0397	0.0285	-0.0592	-0.123	-0.0121	0.0878	-0.08	0.0489	-0.143	-0.0834	0.00707
GCGAAGAC	0.0257	–	–	-0.0191	-0.00826	–	-0.103	0.109	-0.0256	-0.00336	0.0384	-0.0652	–
GGTGGTCA	-0.0782	-0.087	–	-0.0193	-0.0565	-0.0135	-0.0307	-0.0727	-0.0138	-0.051	-0.0635	0.0505	-0.0723
AGTCAACT	-0.0348	-0.00897	–	–	0.0028	-0.0835	-0.039	-0.0282	0.0114	0.0667	0.0783	0.00936	-0.0101
GTTTGACA	-0.0657	-0.0133	-0.0164	–	-0.036	-0.0348	–	-0.105	-0.1	-0.0562	-0.0349	-0.0111	0.0647
GCGTTGAC	0.0425	-0.0732	–	-0.0366	-0.0529	–	0.02	-0.0842	-0.0365	0.000825	0.0459	0.026	-0.0149
TGGGTCAA	–	-0.108	0.00605	-0.0702	0.159	-0.0251	-0.00125	0.0706	0.0162	-0.00758	-0.0843	-0.00899	-0.055
AGTTGACC	-0.0113	–	-0.0473	-0.0243	-0.0465	-0.00299	-0.0272	-0.0823	-0.162	-0.104	-0.0777	0.0333	-0.0575
GTCAAAGA	0.0277	-0.00103	0.0365	0.0309	–	-0.0603	–	0.00195	0.167	0.0371	0.00674	0.0504	–
GACCAAGA	-0.0519	0.0383	–	-0.11	-0.154	-0.0199	0.0202	-0.0424	-0.0481	-0.133	-0.0243	-0.0623	-0.0397
GTTGACGA	-0.16	-0.0906	-0.029	–	-0.18	-0.123	0.0307	-0.2	-0.0807	-0.0601	-0.0528	0.0677	0.0147
TGACCAAA	–	-0.00509	-0.0668	0.0216	0.126	-0.077	-0.0424	0.038	0.0442	0.0456	-0.0165	0.113	0.0104
GCGTGGAC	–	-0.0922	0.0892	-0.0188	0.19	-0.00034	-0.0511	-0.0292	0.00453	-0.087	0.0211	0.0297	-0.176
